Measured values published in publication PMC5745004.
No constants are given. Whether binding was seen depends on the method and setting. For some of these results: Binding seen in cells or lysates may run through a third protein. Some binding calls cover weakened binding; strength is not graded here.

Chains of the proteins cited; added tags and fusions are not shown. Lines headed by an entry give the natural chain unless they say otherwise; changes in a name come on top. A line that says so, or that is headed by a name, gives the form on record, which may keep a tag or linker.
UniProt P23321: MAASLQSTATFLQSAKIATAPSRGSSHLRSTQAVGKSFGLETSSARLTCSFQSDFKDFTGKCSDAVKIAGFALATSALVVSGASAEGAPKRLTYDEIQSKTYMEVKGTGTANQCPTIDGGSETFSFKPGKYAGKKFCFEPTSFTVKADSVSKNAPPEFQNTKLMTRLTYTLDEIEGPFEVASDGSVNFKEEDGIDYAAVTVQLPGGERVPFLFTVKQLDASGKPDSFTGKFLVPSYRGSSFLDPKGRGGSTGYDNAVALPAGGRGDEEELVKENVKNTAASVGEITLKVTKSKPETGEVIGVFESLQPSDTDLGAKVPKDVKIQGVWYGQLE
PsbO1* (PsbO1 clone found in the pJG4-5 prey library, lacking the first 22 amino acids, T200A) (P23321, form named): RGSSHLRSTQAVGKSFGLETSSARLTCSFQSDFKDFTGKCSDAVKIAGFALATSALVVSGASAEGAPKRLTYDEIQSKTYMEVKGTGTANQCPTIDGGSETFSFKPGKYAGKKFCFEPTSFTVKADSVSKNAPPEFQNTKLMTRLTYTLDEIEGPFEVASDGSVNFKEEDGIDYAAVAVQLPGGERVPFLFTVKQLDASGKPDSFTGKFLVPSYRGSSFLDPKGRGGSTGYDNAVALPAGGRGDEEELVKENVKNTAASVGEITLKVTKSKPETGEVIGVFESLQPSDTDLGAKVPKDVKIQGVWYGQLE
mature form PsbO1^T200A, HA-tagged prey (P23321, form named): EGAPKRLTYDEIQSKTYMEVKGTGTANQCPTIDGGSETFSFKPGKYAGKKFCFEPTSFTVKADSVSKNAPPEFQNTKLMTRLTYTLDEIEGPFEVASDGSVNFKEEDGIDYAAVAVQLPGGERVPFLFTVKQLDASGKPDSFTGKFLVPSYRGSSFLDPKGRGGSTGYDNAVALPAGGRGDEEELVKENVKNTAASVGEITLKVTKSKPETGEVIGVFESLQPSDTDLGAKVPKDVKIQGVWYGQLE

What was measured:
[1] = target: T1, HSP90C middle and C-terminal domains (HSP90C-MC), bait in pEG202 (Arabidopsis) (UniProt Q9SIF2); assay: two-hybrid; library screen: HSP90C-MC bait in pEG202, Arabidopsis inflorescence cDNA prey library in pJG4-5, S. cerevisiae EGY48, LEU2 and lacZ markers, three rounds; hits sequenced and retransformed (dilution assay on SG-UHWL, 30°C, 4 days)
T1 sequence: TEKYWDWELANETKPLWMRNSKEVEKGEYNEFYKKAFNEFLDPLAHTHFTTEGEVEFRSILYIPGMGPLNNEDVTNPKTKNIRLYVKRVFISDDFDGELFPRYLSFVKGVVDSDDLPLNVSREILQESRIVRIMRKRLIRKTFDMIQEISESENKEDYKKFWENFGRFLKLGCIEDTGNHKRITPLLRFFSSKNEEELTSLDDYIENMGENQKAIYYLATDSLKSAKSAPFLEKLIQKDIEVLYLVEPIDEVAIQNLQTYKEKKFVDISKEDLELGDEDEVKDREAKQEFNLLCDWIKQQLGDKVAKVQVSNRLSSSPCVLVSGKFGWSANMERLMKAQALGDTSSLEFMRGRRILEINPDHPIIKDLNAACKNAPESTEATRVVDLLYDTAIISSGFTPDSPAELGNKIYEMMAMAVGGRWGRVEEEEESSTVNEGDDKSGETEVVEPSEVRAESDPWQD

[2] = target: T1, HSP90C middle and C-terminal domains (HSP90C-MC), bait in pEG202 (Arabidopsis); assay: two-hybrid; directed tests in S. cerevisiae EGY48 of re-constructed PsbO1 forms (prey) with HSP90C-MC or HSP90C-N
[3] = target: T2, HSP90C N-terminal domain (HSP90C-N) (Arabidopsis) (UniProt Q9SIF2); assay: as above
T2 sequence: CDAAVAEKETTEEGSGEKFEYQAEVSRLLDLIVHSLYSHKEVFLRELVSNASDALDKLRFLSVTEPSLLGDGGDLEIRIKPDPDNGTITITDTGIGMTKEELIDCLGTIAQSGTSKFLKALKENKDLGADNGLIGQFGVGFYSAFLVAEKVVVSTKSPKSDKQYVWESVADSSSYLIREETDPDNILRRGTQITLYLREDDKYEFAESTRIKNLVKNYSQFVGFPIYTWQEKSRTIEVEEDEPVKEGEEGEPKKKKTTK

[4] = target: full length (pre-protein) PsbO1^T200A, prey (Arabidopsis) (UniProt P23321); assay: co-IP; HA-tagged PsbO1^T200A precipitated with anti-HA affinity resin from EGY48 yeast cell lysate; HSP90C-MC detected with anti-LexA or anti-HSP90C
[5] = target: mature form PsbO1^T200A, HA-tagged prey (Arabidopsis) (UniProt P23321); assay: as above

For “PsbO1* (PsbO1 clone found in the pJG4-5 prey library, lacking the first 22 amino acids, T200A) (from UniProt P23321 23-332) (domain or fragment)”, the binding [1] was “binds”.

“full length (pre-protein) PsbO1^T200A, prey (from UniProt P23321 1-332)” was tested, and the binding [2] was “binds”.

For “mature form PsbO1^T200A, HA-tagged prey (from UniProt P23321 86-332) (domain or fragment)”, the binding [2] was “binds”.

With “native PsbO1 mature form, prey (from UniProt P23321 86-332) (domain or fragment)” the binding [3] was “no binding” and the binding [2] was “binds”.

B1: HSP90C middle and C-terminal domains (HSP90C-MC), bait in pEG202 (domain or fragment, UniProt Q9SIF2 320-780)
chain: T1 sequence
B1 was tested, and the binding [4] was “binds” and the binding [5] was “binds”.
